Some of the results follow.
What was measured:
Test in all cases: glycan array binding signal (z-score within array); higher = stronger binding
Conditions in all cases: glycan notation: IUPAC condensed, linker removed
[1] = target: Neu5Ac(a2-3)Gal(b1-4)GlcNAc(b1-6)GalNAc
Outline: (§1)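 Negative Z-scores can be read as non-binding. The Z-score is calculated within each array and then averaged across arrays of one protein sequence at different concentrations or buffers and across linkers. Arrays, 3228 in all, were curated from the Consortium for Functional Glycomics database and kept only where the protein sequence was available.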

[2] = target: Neu5Ac(a2-3)Gal(b1-4)GlcNAc(b1-6)[Gal(b1-3)]GalNAc
Outline: as §1

[3] = target: Neu5Ac(a2-3)Gal(b1-4)GlcNAc(b1-6)[Neu5Ac(a2-3)Gal(b1-3)]GalNAc
Outline: as §1

[4] = target: Neu5Ac(a2-3)Gal(b1-4)GlcNAc6S
Outline: as §1

[5] = target: Neu5Ac(a2-3)Gal(b1-4)[Fuc(a1-3)]GlcNAc
Outline: as §1

[6] = target: Neu5Ac(a2-3)Gal(b1-4)[Fuc(a1-3)]GlcNAc(b1-2)Man
Outline: as §1

[7] = target: Neu5Ac(a2-3)Gal(b1-4)[Fuc(a1-3)]GlcNAc(b1-3)Gal
Outline: as §1

[8] = target: Neu5Ac(a2-3)Gal(b1-4)[Fuc(a1-3)]GlcNAc(b1-3)Gal(b1-4)GlcNAc
Outline: as §1

[9] = target: Neu5Ac(a2-3)Gal(b1-4)[Fuc(a1-3)]GlcNAc(b1-3)Gal(b1-4)[Fuc(a1-3)]GlcNAc(b1-3)Gal(b1-4)[Fuc(a1-3)]GlcNAc
Outline: as §1

[10] = target: Neu5Ac(a2-3)Gal(b1-4)[Fuc(a1-3)]GlcNAc(b1-3)GalNAc
Outline: as §1

[11] = target: Neu5Ac(a2-3)Gal(b1-4)[Fuc(a1-3)]GlcNAc(b1-6)[Gal(b1-3)]GalNAc
Outline: as §1

[12] = target: Neu5Ac(a2-3)Gal(b1-4)[Fuc(a1-3)]GlcNAc(b1-6)[Neu5Ac(a2-3)Gal(b1-3)]GalNAc
Outline: as §1

[13] = target: Neu5Ac(a2-3)Gal(b1-4)[Fuc(a1-3)]GlcNAc6S
Outline: as §1

[14] = target: Neu5Ac(a2-3)Gal6S(b1-4)GlcNAc
Outline: as §1

[15] = target: Neu5Ac(a2-3)Gal6S(b1-4)[Fuc(a1-3)]GlcNAc
Outline: as §1

Neu5Ac(a2-3)GalNAc = target: Neu5Ac(a2-3)GalNAc
Outline: as §1

[16] = target: Neu5Ac(a2-3)GalNAc(b1-4)GlcNAc
Outline: as §1

[17] = target: Neu5Ac(a2-3)[GalNAc(b1-4)]Gal(b1-4)Glc
Outline: as §1

[18] = target: Neu5Ac(a2-3)[GalNAc(b1-4)]Gal(b1-4)GlcNAc
Outline: as §1

[19] = target: Neu5Ac(a2-3)[GalNAc(b1-4)]Gal(b1-4)GlcNAc(b1-3)GalNAc
Outline: as §1

[20] = target: Neu5Ac(a2-3)[Neu5Ac(a2-6)]GalNAc
Outline: as §1

Neu5Ac(a2-6)Gal = target: Neu5Ac(a2-6)Gal
Outline: as §1

[21] = target: Neu5Ac(a2-6)Gal(b1-3)GlcNAc(b1-3)[Gal(b1-4)GlcNAc(b1-6)]Gal(b1-4)Glc
Outline: as §1

Neu5Ac(a2-6)Gal(b1-4)Glc = target: Neu5Ac(a2-6)Gal(b1-4)Glc
Outline: as §1

[22] = target: Neu5Ac(a2-6)Gal(b1-4)GlcNAc
Outline: as §1

[23] = target: Neu5Ac(a2-6)Gal(b1-4)GlcNAc(b1-2)Man
Outline: as §1

[24] = target: Neu5Ac(a2-6)Gal(b1-4)GlcNAc(b1-2)Man(a1-3)Man(b1-4)GlcNAc(b1-4)GlcNAc
Outline: as §1

[25] = target: Neu5Ac(a2-6)Gal(b1-4)GlcNAc(b1-2)Man(a1-3)[Gal(b1-4)GlcNAc(b1-2)Man(a1-6)]Man(b1-4)GlcNAc(b1-4)GlcNAc
Outline: as §1

[26] = target: Neu5Ac(a2-6)Gal(b1-4)GlcNAc(b1-2)Man(a1-3)[GlcNAc(b1-4)][Neu5Ac(a2-6)Gal(b1-4)GlcNAc(b1-2)Man(a1-6)]Man(b1-4)GlcNAc(b1-4)GlcNAc
Outline: as §1

[27] = target: Neu5Ac(a2-6)Gal(b1-4)GlcNAc(b1-2)Man(a1-3)[Man(a1-6)]Man(b1-4)GlcNAc(b1-4)GlcNAc
Outline: as §1

B1: Pa IMPa (Pseudomonas aeruginosa), Q9I5W4 (protein)
chain: MSLSTTAFPSLQGENMSRSPIPRHRALLAGFCLAGALSAQAATQEEILDAALVSGDSSQLTDSHLVALRLQQQVERIRQTRTQLLDGLYQNLSQAYDPGAASMWVLPANPDNTLPFLIGDKGRVLASLSLEAGGRGLAYGTNVLTQLSGTNAAHAPLLKRAVQWLVNGDPGAATAKDFKVSVVGVDKTAALNGLKSAGLQPADAACNALTDASCASTSKLLVLGNGASAASLSATVRARLQAGLPILFVHTNGWNQSSTGQQILAGLGLQEGPYGGNYWDKDRVPSSRTRTRSVELGGAYGQDPALVQQIVDGSWRTDYDWSKCTSYVGRTTCDDVPGLSDFSKRVDVLKGALDAYNQKAQNLFALPGTTSLRLWLLWADAVRQNIRYPMDKAADTARFQETFVADAIVGYVREAGAAQKELGSYAGQRQQSMPVSGSEETLTLTLPSAQGFTAIGRMAAPGKRLSIRIEDAGQASLAVGLNTQRIGSTRLWNTRQYDRPRFLKSPDIKLQANQSVALVSPYGGLLQLVYSGATPGQTVTVKVTGAASQPFLDIQPGEDSSQAIADFIQALDADKADWLEIRSGSVEVHAKVEKVRGSIDKDYGGDVQRFIRELNEVFIDDAYTLAGFAIPNQAKTPAIQQECAARGWDCDSETLHKLPGTQHINVDQYAQCGGGCSGNPYDQTWGLNPRGWGESHELGHNLQVNRLKVYGGRSGEISNQIFPLHKDWRVLREFGQNLDDTRVNYRNAYNLIVAGRAEADPLAGVYKRLWEDPGTYALNGERMAFYTQWVHYWADLKNDPLQGWDIWTLLYLHQRQVDKSDWDANKAALGYGTYAQRPGNSGDASSTDGNDNLLLGLSWLTQRDQRPTFALWGIRTSAAAQAQVAAYGFAEQPAFFYANNRTNEYSTVKLLDMSQGSPAWPFP
[1]
  glycan array binding signal (z-score): -0.564
[2]
  glycan array binding signal (z-score): 0.175
[3]
  glycan array binding signal (z-score): -0.048
[4]
  glycan array binding signal (z-score): -0.404
[5]
  glycan array binding signal (z-score): -0.302
[6]
  glycan array binding signal (z-score): 0.242
[7]
  glycan array binding signal (z-score): -0.735
[8]
  glycan array binding signal (z-score): -0.079
[9]
  glycan array binding signal (z-score): -0.52
[10]
  glycan array binding signal (z-score): 0.169
[11]
  glycan array binding signal (z-score): -0.347
[12]
  glycan array binding signal (z-score): -0.52
[13]
  glycan array binding signal (z-score): 0.024
[14]
  glycan array binding signal (z-score): -0.43
[15]
  glycan array binding signal (z-score): 0.247
Neu5Ac(a2-3)GalNAc
  glycan array binding signal (z-score): -0.184
[16]
  glycan array binding signal (z-score): -0.618
[17]
  glycan array binding signal (z-score): -0.664
[18]
  glycan array binding signal (z-score): -0.345
[19]
  glycan array binding signal (z-score): 0.22
[20]
  glycan array binding signal (z-score): -0.291
Neu5Ac(a2-6)Gal
  glycan array binding signal (z-score): -0.562
[21]
  glycan array binding signal (z-score): -0.019
Neu5Ac(a2-6)Gal(b1-4)Glc
  glycan array binding signal (z-score): 0.158
[22]
  glycan array binding signal (z-score): -0.11
[23]
  glycan array binding signal (z-score): -0.409
[24]
  glycan array binding signal (z-score): -0.419
[25]
  glycan array binding signal (z-score): -0.037
[26]
  glycan array binding signal (z-score): 0.947
[27]
  glycan array binding signal (z-score): -0.637

Reference: the supplement of paper PMC8728848
